Reference: PubChem BioAssay AID463173 (ICCB-Longwood Screening Facility, Harvard Medical School, 2010)
Among all 52,000 compounds or so, about 4,300 (8.3%) were called active. Rule as the data show it: active = survival mostly below about 52% (no sharp cut-off); inactive = mostly above about 56%. Some of the results follow.

Tested on: DeltatarO mutant
Experiment: S. aureus survival, RN4220 and DeltatarO strains – OD600, teichoic acid synthesis inhibitors, primary screen (AID 463173)
Conditions: S. aureus RN4220 wild type/DeltatarO growth, OD600, 18 h, active compounds read low, screened at 18.75 µg/mL (by protocol)

Row | Structure (SMILES) | survival
1 | CCOc1ccc2nc(NC(=O)c3nc(SCc4ccc(C)cc4)ncc3Cl)sc2c1 | inactive: 54%
2 | COC(=O)C1=CNC=C(C(=O)OC)C1c1ccc(C(F)(F)F)cc1 | inactive: 91%
3 | COc1ccc(CNC(=O)c2ccc3c(c2)CCN3S(=O)(=O)c2ccccc2)cc1 | active: 36%
4 | CC1CCCN(S(=O)(=O)c2cc(C(=O)NCCc3ccccc3)n(C)c2)C1 (stereo not given) | inactive: 73%
5 | O=C(NCc1cccnc1)C1CCCCC1 | inactive: 70%
6 | Cc1ccccc1CNC(=O)c1ccc(Cn2c(SCc3ccccc3)nc3cccnc32)cc1 | active: 0%
7 | Oc1ccc(Br)cc1C=Nc1ccc2[nH]ncc2c1 | inactive: 80%
8 | COc1ccc(OC)c(S(=O)(=O)NCc2ccc3c(c2)CCN3C(=O)c2cccc(C)c2)c1 | inactive: 67%
9 | Cc1ccc2c(c1)cc(CN(Cc1ccc3c(c1)OCO3)S(=O)(=O)c1ccccc1)c1nnnn12 | inactive: 90%
10 | Cc1cccc(N2C(=O)N(Cc3ccc(C(C)(C)C)cc3)c3ccccc3S2(=O)=O)c1 | inactive: 61%
11 | COc1ccccc1NC(=O)C1=C(C)Nc2nc(SCC(=O)c3ccc(C)cc3)nn2C1c1ccc(F)cc1 (stereo not given) | inactive: 79%
12 | O=C(NCc1ccc(Cl)cc1)c1cnc(N2CCOCC2)c2ccccc12 | inactive: 94%
13 | CCCOCc1cc(CN2CCN(c3ccccc3OC)CC2)c(O)c2ncccc12 | inactive: 73%
14 | O=C(Cn1c(=O)sc2ccccc21)OCc1ccccc1 | inactive: 83%
15 | CCOC(=O)c1c(NC(=O)C(C)Sc2cn(CCNC(=O)c3ccc(OC)cc3)c3ccccc23)sc2c1CCC2 (stereo not given) | inactive: 76%
16 | COc1ccc(Cn2c(SCc3ccc(C(=O)NCc4cccs4)cc3)nc3ccncc32)cc1 | inactive: 66%
17 | CCN(C(=O)c1cc(S(=O)(=O)N2CCCC2)cn1C)c1ccc(OC)cc1 | inactive: 84%
18 | COc1ccc(NC(=O)c2nnn(CC(=O)Nc3cc(C)cc(C)c3)c2N)c(OC)c1 | inactive: 111%
19 | CCCCC(=O)Nc1ccc(C(=O)OCc2cc(=O)n3ccsc3n2)cc1 | inactive: 75%
20 | O=S(=O)(c1ccccc1)c1nc(-c2ccco2)oc1SCc1ccc(F)cc1 | inactive: 76%
21 | Cc1ccc(NC(=O)Cn2c(=O)cc(-c3ccccc3)c3c(C)nn(C)c32)c(Cl)c1 | inactive: 78%
22 | O=C(CSc1nnc(-c2ccc(Cl)cc2)c(-c2ccc(Cl)cc2)n1)NC1CCCC1 | inactive: 70%
23 | O=C(CCCn1c(=O)[nH]c2ccsc2c1=O)N1CCN(c2ccc(Cl)cc2)CC1 | inactive: 82%
24 | Cc1ccc(C)c(NC(=O)Cn2c(=O)n(CC(=O)NCCc3ccccc3)c(=O)c3ccccc32)c1 | inactive: 94%
25 | Cc1ccc(-c2nc(CNC(=O)NC3CCCCC3)c(C)o2)cc1 | inactive: 91%
26 | COc1ccc(CNc2nc(-c3ccco3)nn2C(=O)c2ccccc2C)cc1 | inactive: 51%
27 | Cc1ccc(Cl)cc1NC(=O)c1ccc2nc(CCc3ccccc3)oc2c1 | inactive: 69%
28 | CCc1ccc(C(=O)Nc2cccc(-c3nc4cc(C(C)C)ccc4o3)c2)cc1 | active: 41%

Row | Structure (SMILES) | survival
29 | CC(=O)c1cccc(NC(=O)Nc2cc3c(cc2N2CCCC2)n(C)c(=O)n3C)c1 | inactive: 100%
30 | CCn1cc(C(=O)NCc2ccccc2Cl)c(=O)c2cc(S(=O)(=O)N3CCCCCC3)ccc21 | inactive: 72%
31 | CCOc1ccc(Nc2oc(-c3ccc(COc4ccc(C)cc4)o3)nc2C#N)cc1 | inactive: 63%
32 | O=C(c1ccccc1)c1ccc2nc(N3CCN(c4ccc(F)cc4)CC3)c3nncn3c2c1 | inactive: 83%
33 | Cc1ccc(NC(=O)C2CCCN(c3ncnc4onc(C)c34)C2)cc1Cl (stereo not given) | inactive: 112%
34 | Cc1ccc(S(=O)(=O)c2nnn3c2nc(N2CCN(c4cccc(C)c4C)CC2)c2ccccc23)cc1C | inactive: 55%
35 | COc1ccc(CCNC(=O)c2cc3n(n2)C(C(F)(F)F)CC(C2CC2)N3)cc1OC (stereo not given) | inactive: 99%
36 | COc1ccccc1-c1cc2nc(C)c(CCC(=O)NC3CCCCC3)c(C)n2n1 | inactive: 87%
37 | COc1cc(OC)c(NC(=O)C(C)n2nc(-c3ccc(C)cc3)c3c(c2=O)CCCC3)cc1Cl (stereo not given) | active: 39%
38 | O=C(Nc1cc(F)ccc1F)c1cnn2c(C(F)F)cc(-c3ccccc3)nc12 | inactive: 130%
39 | COC(=O)c1ccc(NC(=O)CSc2nc3cc4ccccc4cc3[nH]2)cc1 | inactive: 65%
40 | CCOCCCNC(=O)Cn1nc(CC)n2c(cc3c(OC)cccc32)c1=O | inactive: 88%
41 | CCOC(=O)CC(NC(=O)CCc1c(C)nc2cc(-c3ccccc3)nn2c1C)c1ccc(C)cc1 (stereo not given) | inactive: 109%
42 | CCc1ccc(NC(=O)CCNC(=O)Cn2cnc3ccccc3c2=O)cc1 | inactive: 84%
43 | Cc1ccc(CNC(=O)c2cccc(Nc3nc4ccccc4n4nnnc34)c2)cc1 | inactive: 45%
44 | Cc1ccc(NC(=O)Cn2ncn3c(cc4ccccc43)c2=O)cc1C | inactive: 73%
45 | COC(=O)c1ccccc1NC(=O)Cn1c(=O)n(CCCCC(=O)NCc2ccc3c(c2)OCO3)c(=O)c2ccccc21 | inactive: 67%
46 | COc1cc(OC)c(NC(=O)c2c(C)oc3ncnc(N4CCCCC4)c23)cc1Cl | inactive: 96%
47 | Cc1ccc(N2CCN(c3nc4ccccc4c4nnc(C)n34)CC2)c(C)c1 | inactive: 101%
48 | CCNc1sc(S(C)(=O)=O)nc1S(=O)(=O)c1ccc(C)cc1 | inactive: 125%
49 | CCCCc1nn2c(=O)cc(COC(=O)c3cccs3)nc2s1 | inactive: 99%
50 | COc1ccc(C)c(N2C(=O)CC(N3CCN(c4ccc(F)cc4)CC3)C2=O)c1 (stereo not given) | inactive: 123%
51 | Cc1cc(S(=O)(=O)NC23CC4CC(CC(C4)C2)C3)ccc1-n1cnnn1 | inactive: 95%
52 | Cn1c(=O)n(C)c2cc(N3CCCC3)c(NC(=O)Nc3ccccc3)cc21 | inactive: 56%
53 | Clc1cccc(-n2ncc3c(N4CCCCCC4)ncnc32)c1 | inactive: 92%
54 | Cc1cc(C(=O)N2CCN(c3cc(Cl)ccc3C)CC2)c2c(C)nn(-c3ccccc3)c2n1 | inactive: 124%
55 | COc1ccc(C(=O)Nc2nnc(SCc3cc(=O)n4cc(Cl)ccc4n3)s2)cc1 | inactive: 79%
